We go through 86 sequences from the supplement of paper PMC3334620.

Whole data set: some 33,000 sequences, median “E-score (-0.5 to 0.5)” near -0.043, cut for the highest 2% near 0.37. This is one part of the list.

The test addresses T1, Upc2 (UniProt Q12151).
T1 sequence: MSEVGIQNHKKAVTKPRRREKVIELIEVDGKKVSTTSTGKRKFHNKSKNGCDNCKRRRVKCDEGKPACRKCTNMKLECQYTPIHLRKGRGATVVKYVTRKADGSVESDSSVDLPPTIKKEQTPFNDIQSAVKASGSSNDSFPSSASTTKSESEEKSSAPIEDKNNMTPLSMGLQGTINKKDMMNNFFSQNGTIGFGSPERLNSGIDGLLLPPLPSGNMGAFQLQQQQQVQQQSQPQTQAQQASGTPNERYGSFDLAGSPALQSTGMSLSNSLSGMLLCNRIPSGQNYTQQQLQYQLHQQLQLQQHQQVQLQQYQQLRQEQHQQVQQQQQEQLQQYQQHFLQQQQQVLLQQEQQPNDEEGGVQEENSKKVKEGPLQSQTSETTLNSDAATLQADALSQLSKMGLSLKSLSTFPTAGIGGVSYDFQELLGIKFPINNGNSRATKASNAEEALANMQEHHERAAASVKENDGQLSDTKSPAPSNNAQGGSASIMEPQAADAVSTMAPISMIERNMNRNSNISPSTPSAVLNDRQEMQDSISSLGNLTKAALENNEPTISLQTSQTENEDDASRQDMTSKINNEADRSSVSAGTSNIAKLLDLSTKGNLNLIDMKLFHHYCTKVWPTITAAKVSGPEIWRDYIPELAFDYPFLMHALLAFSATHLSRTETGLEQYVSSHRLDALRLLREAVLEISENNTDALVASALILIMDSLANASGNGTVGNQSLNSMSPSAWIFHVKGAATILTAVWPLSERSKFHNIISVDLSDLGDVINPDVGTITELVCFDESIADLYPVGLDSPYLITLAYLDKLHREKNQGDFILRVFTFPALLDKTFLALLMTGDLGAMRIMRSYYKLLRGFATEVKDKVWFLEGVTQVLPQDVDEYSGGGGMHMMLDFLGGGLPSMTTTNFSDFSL
The test can be described thus: PBM E-score (8-mer binding enrichment) (E-score (-0.5 to 0.5)); higher = stronger / more preferred TF binding; most listed sequences are background and not binding sites. The settings on record: protein concentration: 200 nM; construct: GST-full length. The method, boiled down: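 For each ungapped eight-base word taken together with its reverse complement, the Universal PBM Analysis Suite assigned an E-score. Binding data came from GST-tagged yeast transcription factors, applied at about 100-200 nM, on universal all-10-mer Agilent arrays made double-stranded by primer extension. Fluorescent anti-GST marked bound protein, and scans were normalised with masliner.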
Turning to AGGACAGA, the “PBM E-score” value was -0.347. With CCGGTGAC, the “PBM E-score” value was -0.0955.

Regarding ACTAGCAC, the “PBM E-score” value was -0.142. The value for CTCCGATA was -0.201; that for AGTTGTAA was -0.0253; that for ATTTTATA was 0.0653. The value for CCTCCCAA was -0.0847; that for ACGCTGCT was 0.0566; that for GAACTAGA was -0.0571. The same measure for GGAGGAGA: -0.146. For the sequence CAAATTGC, the “PBM E-score” value is 0.0476. Take CTTGAATA: the “PBM E-score” value was -0.115. The same measure for AACCGTCA: -0.268; for CTGGCGAC: -0.322. With AACCTTCG, the “PBM E-score” value was 0.125. Take CGTCTCTA: the “PBM E-score” value is -0.252. Consider ATATGCTA, for which the “PBM E-score” value is -0.00731. GCAAATAA: the “PBM E-score” value is -0.0294. In the case of AAGTAAAG, the “PBM E-score” value was -0.16. On to TAGGTAGA, for which the “PBM E-score” value is -0.157. Turning to ATTCCCAG, the “PBM E-score” value came to 0.0557.

CCTTCAAA: the “PBM E-score” value was -0.166. For the sequence TTGTCAAA, the “PBM E-score” value stood at 0.0127.

Take GTACTCAC: the “PBM E-score” value stood at 0.039.

CCTAACAA: the “PBM E-score” value was -0.0359. Take CATCGCTC: the “PBM E-score” value was 0.0855. With CAGGCTGC, the “PBM E-score” value was -0.339. The same measure for GTATTAAA: 0.127; for GGATCGCA: 0.134; for CCAGGAGA: -0.21. CATGGAGA: the “PBM E-score” value is -0.287.

In the case of CCTGATAA, the “PBM E-score” value is -0.0374. The same measure for CCCCTAAA: -0.146; for TAACGGTA: 0.225.

On to TACTTTGA, for which the “PBM E-score” value is -0.0619. The value for GGGTCCGA was 0.0594; that for CCAAGTGA was -0.159. The same measure for ATCGCACC: 0.0584; for AAGGTTCC: -0.228; for GGCGTACC: 0.234. The value for ATTAGGAG was -0.167; that for CCGATAAC was 0.103; that for ACAGTGAT was 0.155. For the sequence AATGCGGG, the “PBM E-score” value is -0.105. The same measure for ATGGAAGC: -0.205; for CAGACATC: -0.0749; for GTTTTGAA: -0.00014. GGCGGTAA: the “PBM E-score” value amounted to 0.155.

As to AAACTTAG, the “PBM E-score” value was -0.176. The value for ATCTGCCC was -0.0503; that for TCGATACA was 0.0336. The same measure for CATAGATA: -0.184.

For the sequence TTCGCGAA, the “PBM E-score” value came out at 0.32.

Take CGGAAAGC: the “PBM E-score” value is -0.0301. The same measure for AAGTAAGT: -0.0171. As to AACGGCAG, the “PBM E-score” value came to 0.222. The value for ACTTATAC was 0.362; that for ATTGTGTC was -0.0367; that for CAATTCTC was -0.219. In the case of GATCTCGC, the “PBM E-score” value is 0.15. For the sequence CTGCCGCC, the “PBM E-score” value is -0.25. The same measure for GTTGCCTA: -0.104; for CAAGTTGA: 0.00614.

For the sequence GACCATCA, the “PBM E-score” value was -0.0233. AAAGTTAA: the “PBM E-score” value is -0.0129.

Take TACTATGA: the “PBM E-score” value came out at 0.0123. The same measure for AGTCGGAC: 0.0361; for ATACCGCG: 0.0301; for ATTTATTG: -0.157.

For the sequence ATAGAAAG, the “PBM E-score” value is -0.0817.

Take GTTGGACA: the “PBM E-score” value is -0.123. In the case of GAGCGCTC, the “PBM E-score” value amounted to 0.0839. The value for GCTGGGTA was -0.143; that for AACAGTAT was 0.21.

Regarding ACTTATGG, the “PBM E-score” value was -0.159. The value for CCATTGAG was -0.13; that for AACTTCTC was 0.0927.

For CCGATTTC, the “PBM E-score” value is -0.178.

For the sequence CCCCGCCC, the “PBM E-score” value came to 0.138.

ATACCAAA: the “PBM E-score” value is -0.095. The value for ATGCACTC was -0.0309. The value for ACAGATAG was -0.144; that for ATTTCGTA was 0.431; that for GGAGTTTA was -0.0511. The same measure for AACGTTCC: 0.152; for CTTGAGAA: -0.148.
